From PubChem BioAssay AID330 (DTP/NCI, 2004)
Several values for one entry are separate records, joined by “and”; a condition that tells them apart may be missing. Identical values can stand only once. This continues a long series; more values of the same kind are listed elsewhere. Toxic doses and inconclusive results are not listed. How the source made its calls: active means survival T/C of 150% or more; inactive means T/C below 125% in these data.

Test system: P388 leukemia ip, CD2F1 mice, survival T/C
Assay: NCI In Vivo Anticancer Drug Screen. Data for tumor model P388 Leukemia (intraperitoneal) in CD2F1 (CDF1) mice
Details: endpoint: median survival time, higher = longer survival
Procedure: The antitumor activity of compounds was measured in mice bearing transplantable tumors. Survival or tumor size were measured and the results are expressed as the measurement made in the treated group (T) divided by the measurement made in the vehicle treated control group (C). The tumor model used in this assay is P388 Leukemia (intraperitoneal) in CD2F1 (CDF1) mice

Measured: T/C

O=P1(N(CCCl)CCCl)NCCCO1 (stereo not drawn)
active: dose: 73.0 mg/kg/injection, schedule: Q04DX003 (ip), vehicle: saline 527 % of control | dose: 110.0 mg/kg/injection, schedule: Q04DX003 (ip), vehicle: saline 460 % of control and 530 % of control | dose: 120.0 mg/kg/injection, schedule: Q04DX003 (ip), vehicle: saline 441 % of control | dose: 267.0 mg/kg/injection, schedule: Q01DX001 (ip), vehicle: water 446 % of control
inactive: dose: 180.0 mg/kg/injection, schedule: Q01DX001 (ip), vehicle: saline 92 % of control | dose: 200.0 mg/kg/injection, schedule: Q01DX009 (ip), vehicle: saline 87 % of control | dose: 320.0 mg/kg/injection, schedule: Q04DX003 (ip), vehicle: water 92 % of control | dose: 600.0 mg/kg/injection, schedule: Q01DX001 (ip), vehicle: water 66 % of control
